Data taken from publication PMC6212790.
The other results are listed elsewhere or left out. At the low end of the ranking, values are background and their order means little.

target: T1, GST-Rok (full length) (UniProt O34857); assay: protein binding microarray; settings: Rok is a gene silencer of Bacillus subtilis; high values mean tight binding; most listed sequences are background and not binding sites; double strand, one strand shown;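 further: rank score from −0.5 (least bound) to 0.5 (best bound)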
T1 sequence: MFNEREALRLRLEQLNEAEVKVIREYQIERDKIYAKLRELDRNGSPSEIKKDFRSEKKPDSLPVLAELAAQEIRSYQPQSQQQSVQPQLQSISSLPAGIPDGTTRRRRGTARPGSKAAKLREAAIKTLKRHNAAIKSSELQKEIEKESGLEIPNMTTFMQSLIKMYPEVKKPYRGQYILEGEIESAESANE

| Sequence | binding signal |
| --- | --- |
| CCTAGACA | -0.0491 E-score |
| AGCTCTCA | -0.12 E-score |
| CAGTGGTA | 0.258 E-score |
| ACGCCCAT | -0.311 E-score |
| GATGGTGA | 0.0154 E-score |
| GGGGAGAA | -0.197 E-score |
| AGGAGATA | 0.0345 E-score |
| CCCGAAGC | -0.387 E-score |
| CAGCGCAG | -0.209 E-score |
| GTAGTTAA | 0.431 E-score |
| CCTCAGCA | -0.202 E-score |
| GCCCTACC | -0.197 E-score |
| ACACATAT | 0.192 E-score |
| CATTGCCG | -0.035 E-score |
| AGGGCACA | -0.209 E-score |
| AGGGGATC | -0.365 E-score |
| CACAAGGA | -0.124 E-score |
| CACTCCAG | -0.203 E-score |
| GTATCATA | 0.153 E-score |
| CATCGGGG | -0.364 E-score |
| GGGGGGAA | -0.374 E-score |
| TGATACAA | 0.306 E-score |
| CTGGTGCA | -0.0982 E-score |
| ATTCGAAG | 0.09 E-score |
| CTGACCAC | -0.141 E-score |

| Sequence | binding signal |
| --- | --- |
| AGTTACTC | 0.188 E-score |
| AATGGACT | -0.000336 E-score |
| CGATCTAG | 0.214 E-score |
| AGCTAAGC | 0.000675 E-score |
| ATGAAATG | 0.0719 E-score |
| AAATAGTA | 0.42 E-score |
| CAACAATG | 0.0221 E-score |
| AATTCCAT | 0.181 E-score |
| CAATCGGC | -0.115 E-score |
| ACACGTTA | 0.067 E-score |
| CGAGGCAC | -0.132 E-score |
| CTGGCTCC | -0.398 E-score |
| ATCACTCG | -0.0286 E-score |
| GTGGAAAC | -0.137 E-score |
| CCAAGTGG | -0.0692 E-score |
| ACATTAGA | 0.154 E-score |
| ATTCCATC | 0.0755 E-score |
| GTGTTTGA | 0.00176 E-score |
| AATAAGAT | 0.218 E-score |
| AGTCCGAA | -0.104 E-score |
| AAGGTTGA | -0.0152 E-score |
| AACATAAT | 0.219 E-score |
| GCCTGCAC | -0.258 E-score |
| AACGGGAG | -0.141 E-score |
| AATCCCAC | -0.106 E-score |

| Sequence | binding signal |
| --- | --- |
| AAGCTACG | 0.0885 E-score |
| CTTCACTA | 0.0662 E-score |
| AGGCACAA | 0.0173 E-score |
| ACTGGGCT | -0.0701 E-score |
| CACCACGC | -0.207 E-score |
| CCGAACCC | -0.224 E-score |
| CCAAAACA | 0.0981 E-score |
| GGAACCCC | -0.34 E-score |
| AGGATTCC | -0.156 E-score |
| ATTCAGCG | 0.0186 E-score |
| CATAGCGC | 0.00734 E-score |
| GTGTACTA | 0.217 E-score |
| ACGGAAGG | -0.275 E-score |
| ACATACAG | 0.123 E-score |
| CGCATTTC | -0.0281 E-score |
| TTATTAAA | 0.168 E-score |
| CAACGTGC | -0.0926 E-score |
| GCACATGA | -0.00782 E-score |
| CCCTATTC | -0.194 E-score |
| CAATTTGA | 0.0216 E-score |
| GAATTGTC | -0.0803 E-score |
| GAGACTAA | -0.0972 E-score |
| TAGAGTCA | -0.0981 E-score |
| AGCGTATC | -0.0363 E-score |
| TCCGGCCA | -0.0782 E-score |

| Sequence | binding signal |
| --- | --- |
| CGTCGTAC | 0.00676 E-score |
| CGGCCACG | -0.354 E-score |
| AGATGCTG | -0.0201 E-score |
| AGTCGTGG | -0.0529 E-score |
| GCTACCAA | 0.324 E-score |
| ACACCTAT | 0.213 E-score |
| GTAGCCAC | -0.144 E-score |
| ACTCGAGG | -0.0396 E-score |
| ATCTGGGG | -0.299 E-score |
| AAACACAC | 0.107 E-score |
| AACGTTCG | -0.0966 E-score |
| ATCGGACC | -0.0937 E-score |
| ATGCCTAG | 0.0499 E-score |
| CAAGAACA | -0.0847 E-score |
| CCCGCACG | -0.329 E-score |
| TACATGGA | 0.135 E-score |
| CCCTGAAC | -0.279 E-score |
| ACCGCTCG | -0.107 E-score |
| CCGGTGAA | -0.229 E-score |
| CAATTTGC | -0.0672 E-score |
| GAGTTTGC | 0.0867 E-score |
| TGAAAAAA | 0.0222 E-score |
| GAAGCATA | -0.0777 E-score |
| AGGGAAAA | -0.061 E-score |
| CCCACGCC | -0.292 E-score |

| Sequence | binding signal |
| --- | --- |
| ATTGCGTC | -0.051 E-score |
| ACTCCGTA | 0.0187 E-score |
| AAATATTT | 0.337 E-score |
| ACAGCCGT | -0.0492 E-score |
| AGGTACGG | -0.101 E-score |
| AATTAGCT | 0.275 E-score |
| ATTGTGCC | 0.0477 E-score |
| AATCGTTA | 0.0165 E-score |
| GTCTATGA | -0.128 E-score |
| AGGTGTCA | -0.0859 E-score |
| GATGTTCA | 0.0183 E-score |
| CCATCAGA | -0.019 E-score |
| GCCTTCAA | -0.171 E-score |
| CGTTTACA | 0.0441 E-score |
| AATATTCA | 0.282 E-score |
| ACTAGGCA | 0.185 E-score |
| CACACGAG | -0.0272 E-score |
| GCGCCCGC | -0.34 E-score |
| ATTACACG | 0.062 E-score |
| GTAGTCTA | 0.175 E-score |
| AAGACAGG | -0.161 E-score |
| AAATGCCT | -0.15 E-score |
| ACGAGAAG | -0.146 E-score |
| CTTGCCCA | -0.116 E-score |
| ATAATACA | 0.237 E-score |

| Sequence | binding signal |
| --- | --- |
| AATATATT | 0.41 E-score |
| ATGTTGAC | -0.0855 E-score |
| AGCCTATA | 0.106 E-score |
| TGTCGAAA | 0.187 E-score |
| AGAATCAG | 0.202 E-score |
| CGCAGAAC | -0.0856 E-score |
| CTCGTTCC | -0.0919 E-score |
| AGTTGCAT | 0.213 E-score |
| ATCGGGGA | -0.154 E-score |
| AGCTAGTC | 0.078 E-score |
| TCGTATAA | 0.179 E-score |
| GCCCTAAA | -0.182 E-score |
| AATTCATC | 0.203 E-score |
| ACGGTGCT | -0.279 E-score |
| GCGATATA | 0.342 E-score |
| GCTGCTGA | -0.177 E-score |
| GTAGTGTA | 0.193 E-score |
| ACAAAGTC | -0.142 E-score |
| TAATAGAA | 0.274 E-score |
| GGTAGGAA | 0.208 E-score |
| ATACAGGC | 0.0887 E-score |
| GCAAGAGA | -0.0894 E-score |
| CGGTGGCA | -0.155 E-score |
| CCTAACAG | 0.0291 E-score |
| GCAACTTA | 0.225 E-score |

| Sequence | binding signal |
| --- | --- |
| AGCGTTCA | -0.203 E-score |
| CACACGCG | -0.148 E-score |
| AATCTACG | 0.311 E-score |
| ATTACATA | 0.208 E-score |
| ATTTGTGA | 0.205 E-score |
| CTGCATAA | 0.224 E-score |
| CGGGCGAC | -0.41 E-score |
| AACAAAAG | 0.0913 E-score |
| GTATGTAA | 0.321 E-score |
| CCTGATCA | 0.065 E-score |
| AACGAGCA | -0.0882 E-score |
| CAAAAGGG | -0.234 E-score |
| GACGTTGC | -0.104 E-score |
| AGCATAGG | 0.128 E-score |
| ACATTCAT | 0.217 E-score |
| TCATTAAA | 0.0589 E-score |
| CAGCGGAA | 0.0135 E-score |
| ATCATTGA | 0.1 E-score |
| GACGGACC | -0.24 E-score |
| CAATTAGC | -0.0535 E-score |
| AACCCTCA | -0.231 E-score |
| TCGGGACA | -0.143 E-score |
